Measurements taken from the supplement of paper PMC4604168 (melanoma cell lines).
Some of the results follow. Most values come without repeats; read them as rough.

Key:
Test in all cases: cell count relative to DMSO control; melanoma cells; higher = more viable cells
Conditions in all cases: library dose: low library concentration; 72 h
[1] = test system: WM115
[2] = test system: WM1716
[3] = test system: WM1745
[4] = test system: WM3526
[5] = test system: WM3619
[6] = test system: WM451Lu
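Further: cell number obtained by counting DAPI-stained nuclei in high-throughput microscope images with image analysis software, screen run in 1,536-well plates.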

Compound | cell count [1] [%] | cell count [2] [%] | cell count [3] [%] | cell count [4] [%] | cell count [5] [%] | cell count [6] [%]
CCN(CC)CCNC(=O)c1c(C)[nH]c(/C=C2\C(=O)Nc3ccc(F)cc32)c1C [sunitinib] + C=CCNC1=C2C[C@@H](C)C[C@H](OC)[C@H](O)[C@@H](C)/C=C(\C)[C@H](OC(N)=O)[C@@H](OC)/C=C\C=C(/C)C(=O)NC(=CC1=O)C2=O [Tanespimycin] (first compound 0.4 µM, partner dose 0.002 µM) | 101 | 130 | 77.9 | 81.1 | 110 | 98.7
Cn1cnc2c(F)c(Nc3ccc(Br)cc3Cl)c(C(=O)NOCCO)cc21 [selumetinib] + O=C(O)C(=O)Nc1sc2c(c1C(=O)O)CCNC2 [TCS401] (first compound 0.015 µM, partner dose 1.66667 µM) | 90.3 | 111 | 95.7 | 75.1 | 94.1 | 114
Cn1cnc2c(F)c(Nc3ccc(Br)cc3Cl)c(C(=O)NOCCO)cc21 [selumetinib] + O=S(=O)(c1ccccc1)N(CC(F)(F)F)c1ccc(C(O)(C(F)(F)F)C(F)(F)F)cc1 [T0901317] (first compound 0.015 µM, partner dose 1.4 µM) | 82.5 | 94.1 | 74.9 | 63.5 | 69.9 | 97.8
COc1cc([C@@H]2c3cc4c(cc3[C@@H](O[C@@H]3O[C@@H]5CO[C@@H](C)O[C@H]5[C@H](O)[C@H]3O)[C@H]3COC(=O)[C@H]23)OCO4)cc(OC)c1O [etoposide] + Cc1ccc(Nc2nccc(N(C)c3ccc4c(C)n(C)nc4c3)n2)cc1S(N)(=O)=O [Pazopanib] (first compound 0.02 µM, partner dose 0.4 µM) | 90.4 | 88.7 | 94.6 | 83 | 71.9 | 101
Cn1cnc2c(F)c(Nc3ccc(Br)cc3Cl)c(C(=O)NOCCO)cc21 [selumetinib] + Nc1cccc2c1CN(C1CCC(=O)NC1=O)C2=O [lenalidomide] (first compound 0.015 µM, partner dose 1 µM) | 91.8 | 114 | 103 | 83.3 | 71.5 | 98.9
Cn1cnc2c(F)c(Nc3ccc(Br)cc3Cl)c(C(=O)NOCCO)cc21 [selumetinib] + CNC(=O)c1cc(Oc2ccc(NC(=O)Nc3ccc(Cl)c(C(F)(F)F)c3)cc2)ccn1 [sorafenib] (first compound 0.015 µM, partner dose 0.4 µM) | 87.1 | 90.5 | 100 | 80.2 | 92.7 | 94.2
C[C@]1(O)C[C@@H](c2nc(-c3ccc4ccc(-c5ccccc5)nc4c3)c3c(N)nccn32)C1 + COc1ccc2c(c1)CCC1C2CCC2(C)C(NCCCCCCN3C(=O)C=CC3=O)CCC12 [U73122] (first compound 0.4 µM, partner dose 0.4 µM) | 91.8 | 76.9 | 85.1 | 68.3 | 72.2 | 57.2
COc1cc([C@@H]2c3cc4c(cc3[C@@H](O[C@@H]3O[C@@H]5CO[C@@H](C)O[C@H]5[C@H](O)[C@H]3O)[C@H]3COC(=O)[C@H]23)OCO4)cc(OC)c1O [etoposide] + C#Cc1cccc(Nc2ncnc3cc(OCCOC)c(OCCOC)cc23)c1 [erlotinib] (first compound 0.02 µM, partner dose 0.8 µM) | 75.9 | 64.4 | 91.3 | 97.5 | 82.5 | 94.9
C[C@]1(O)C[C@@H](c2nc(-c3ccc4ccc(-c5ccccc5)nc4c3)c3c(N)nccn32)C1 + Nc1nc(F)nc2c1ncn2[C@@H]1O[C@H](CO)[C@@H](O)[C@@H]1O [fludarabine] (first compound 0.4 µM, partner dose 0.2 µM) | 91.7 | 101 | 70.1 | 26.4 | 83.4 | 44
Cn1cnc2c(F)c(Nc3ccc(Br)cc3Cl)c(C(=O)NOCCO)cc21 [selumetinib] + Cn1nnc2c(C(N)=O)ncn2c1=O [temozolomide] (first compound 0.015 µM, partner dose 2 µM) | 90 | 114 | 108 | 77.9 | 70.8 | 104
Cn1cnc2c(F)c(Nc3ccc(Br)cc3Cl)c(C(=O)NOCCO)cc21 [selumetinib] + OCCn1cc(-c2cnc3nnn(Cc4ccc5ncccc5c4)c3n2)cn1 [PF04217903] (first compound 0.015 µM, partner dose 1 µM) | 84.3 | 105 | 106 | 83.1 | 90.5 | 96.5
COc1cc([C@@H]2c3cc4c(cc3[C@@H](O[C@@H]3O[C@@H]5CO[C@@H](C)O[C@H]5[C@H](O)[C@H]3O)[C@H]3COC(=O)[C@H]23)OCO4)cc(OC)c1O [etoposide] + OCCn1cc(-c2cnc3nnn(Cc4ccc5ncccc5c4)c3n2)cn1 [PF04217903] (first compound 0.02 µM, partner dose 1 µM) | 86.3 | 92.1 | 105 | 127 | 86.3 | 91.3
C[C@]1(O)C[C@@H](c2nc(-c3ccc4ccc(-c5ccccc5)nc4c3)c3c(N)nccn32)C1 + OCc1c[nH]c2ccccc12 [Indole-3-carbinol] (first compound 0.4 µM, partner dose 0.8 µM) | 111 | 104 | 76.2 | 83.8 | 97.4 | 93.1
COc1cc([C@@H]2c3cc4c(cc3[C@@H](O[C@@H]3O[C@@H]5CO[C@@H](C)O[C@H]5[C@H](O)[C@H]3O)[C@H]3COC(=O)[C@H]23)OCO4)cc(OC)c1O [etoposide] + COc1cc(N2CCC(N3CCN(C)CC3)CC2)ccc1Nc1ncc(Cl)c(Nc2ccccc2S(=O)(=O)C(C)C)n1 [NVP-TAE684] (first compound 0.02 µM, partner dose 0.08 µM) | 82.9 | 79.6 | 80.7 | 87.3 | 109 | 71.7
C[C@]1(O)C[C@@H](c2nc(-c3ccc4ccc(-c5ccccc5)nc4c3)c3c(N)nccn32)C1 + Oc1cc(-c2nc(-c3ccccc3)[nH]c2-c2ccncc2)ccc1Cl [L779450] (first compound 0.4 µM, partner dose 0.2 µM) | 98.1 | 122 | 77.1 | 80.4 | 84.6 | 102
C[C@]1(O)C[C@@H](c2nc(-c3ccc4ccc(-c5ccccc5)nc4c3)c3c(N)nccn32)C1 + CCCCCCCCCCCC1=C(O)C(=O)C=C(O)C1=O [Embelin] (first compound 0.4 µM, partner dose 1.2 µM) | 101 | 104 | 74.8 | 80.1 | 119 | 91.8
Cn1cnc2c(F)c(Nc3ccc(Br)cc3Cl)c(C(=O)NOCCO)cc21 [selumetinib] + COc1ccc(COc2ccc(Cc3cnc(N)nc3N)cc2OC)cc1 [GW2580] (first compound 0.015 µM, partner dose 1 µM) | 88.4 | 123 | 101 | 88.7 | 89 | 112
COc1cc([C@@H]2c3cc4c(cc3[C@@H](O[C@@H]3O[C@@H]5CO[C@@H](C)O[C@H]5[C@H](O)[C@H]3O)[C@H]3COC(=O)[C@H]23)OCO4)cc(OC)c1O [etoposide] + O=C(O)c1ccc(-c2c[nH]c3ncc(-c4ccccc4)cc23)cc1C1CCCC1 [GSK650394] (first compound 0.02 µM, partner dose 0.16 µM) | 78.2 | 105 | 88.9 | 124 | 97 | 76.5
CCN(CC)CCNC(=O)c1c(C)[nH]c(/C=C2\C(=O)Nc3ccc(F)cc32)c1C [sunitinib] + C#Cc1cccc(Nc2ncnc3cc(OCCOC)c(OCCOC)cc23)c1 [erlotinib] (first compound 0.4 µM, partner dose 0.8 µM) | 95.4 | 123 | 63.9 | 90.2 | 88.3 | 86
COc1cc([C@@H]2c3cc4c(cc3[C@@H](O[C@@H]3O[C@@H]5CO[C@@H](C)O[C@H]5[C@H](O)[C@H]3O)[C@H]3COC(=O)[C@H]23)OCO4)cc(OC)c1O [etoposide] + Oc1cc(-c2nc(-c3ccccc3)[nH]c2-c2ccncc2)ccc1Cl [L779450] (first compound 0.02 µM, partner dose 0.2 µM) | 76.6 | 94.9 | 87.7 | 86.2 | 96.7 | 104
COc1cc([C@@H]2c3cc4c(cc3[C@@H](O[C@@H]3O[C@@H]5CO[C@@H](C)O[C@H]5[C@H](O)[C@H]3O)[C@H]3COC(=O)[C@H]23)OCO4)cc(OC)c1O [etoposide] + Cc1cc(Nc2cc(N3CCN(C)CC3)nc(/C=C/c3ccccc3)n2)n[nH]1 [ENMD2076] (first compound 0.02 µM, partner dose 0.04 µM) | 77.3 | 89.7 | 113 | 102 | 86.6 | 89
CCN(CC)CCNC(=O)c1c(C)[nH]c(/C=C2\C(=O)Nc3ccc(F)cc32)c1C [sunitinib] + C=CCn1c(=O)c2cnc(Nc3ccc(N4CCN(C)CC4)cc3)nc2n1-c1cccc(C(C)(C)O)n1 [MK1775] (first compound 0.4 µM, partner dose 0.02 µM) | 94 | 111 | 78.9 | 72.6 | 99 | 126
Cn1cnc2c(F)c(Nc3ccc(Br)cc3Cl)c(C(=O)NOCCO)cc21 [selumetinib] + C=CCNC1=C2C[C@@H](C)C[C@H](OC)[C@H](O)[C@@H](C)/C=C(\C)[C@H](OC(N)=O)[C@@H](OC)/C=C\C=C(/C)C(=O)NC(=CC1=O)C2=O [Tanespimycin] (first compound 0.015 µM, partner dose 0.002 µM) | 78.8 | 103 | 90.5 | 70.6 | 79.9 | 93
